{"source": "patent US20130102680A1", "about": "“METHODS FOR SELECTIVE SILENCING OF SENSORY NEURONS” (CORNELL UNIVERSITY, priority 2011, published 2013)", "tested_on": "voltage gated Na+ channels", "test": "Neuronal Na+ currents after cap-ET and/or QX-314 loading, whole-cell recording", "conditions": "10 μM PAO + 10 or 50 μM cap-ET 15 min, then 5 mM QX-314 15 min"}
{"smiles": "COc1cc(CNC(=O)CCCC/C=C/C(C)C)ccc1OCC[N+](C)(C)C", "note": "[cap-ET, capsaicin O-ethyl (trimethyl-ammonium) acetate]", "values": [{"measurement": "voltage-gated Na+ currents after QX-314 in PAO-sensitized neurons", "result": "effective reduction of voltage-gated Na+ currents"}]}
